Source: the supplement of paper PMC3334620
Over roughly 33,000 sequences, “E-score (-0.5 to 0.5)” has its median near -0.056; the highest 2% begin near 0.38. Some of the results follow.

The sequences below were run against Stb4 (UniProt P50104) (assay: PBM E-score (8-mer binding enrichment) (E-score (-0.5 to 0.5)); higher = stronger / more preferred TF binding; most listed sequences are background and not binding sites). Details: protein concentration: 200 nM; construct: GST-DNA-binding domain.
Experimental: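 Universal 'all 10-mer' protein binding microarrays (Agilent AMADID 015681) probed with GST-tagged S. cerevisiae TFs (full-length or DBD) made by in vitro transcription/translation (PURExpress), about 100-200 nM. Bound TF was detected with fluorescent anti-GST. Each ungapped 8-mer (which stands for itself and its reverse complement) is scored by the PBM enrichment score (E-score), a modified Wilcoxon-Mann-Whitney statistic from -0.5 to +0.5, computed with the Universal PBM Analysis Suite. Scale: above 0.35 generally sequence-specific binding.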
In the case of AAAAACCA, the “PBM E-score” value is reported as 0.142.
For GGAAATCC, the “PBM E-score” value was 0.25.
With GACGACGA the “PBM E-score” value was -0.131.
CATGTGAG was tested, and the “PBM E-score” value was -0.203.
GCGATAAC was tested, and the “PBM E-score” value was 0.0985.
TACAAATA was tested, and the “PBM E-score” value was 0.135.
For AAAGACAT, the “PBM E-score” value was -0.14.
AGCCCGCT was tested, and the “PBM E-score” value was -0.173.
ATACGTCG was tested, and the “PBM E-score” value was 0.0259.
CGACCATA was tested, and the “PBM E-score” value was 0.0767.
In the case of GGTATTAA, the “PBM E-score” value is reported as 0.104.
In the case of AGACTGAG, the “PBM E-score” value is reported as -0.107.
With CATTTGTA the “PBM E-score” value was -0.106.
With CGGACCAC the “PBM E-score” value was 0.24.
In the case of AGGGGCAT, the “PBM E-score” value is reported as -0.228.
In the case of AAAGTTAC, the “PBM E-score” value is reported as -0.0312.
With CGAACTAA the “PBM E-score” value was 0.00743.
CGCCTGCA was tested, and the “PBM E-score” value was -0.128.
For ACGGACTG, the “PBM E-score” value was -0.121.
For TACCTAGA, the “PBM E-score” value was -0.0508.
For AAACAAAA, the “PBM E-score” value was -0.166.
For CCCGCAAA, the “PBM E-score” value was 0.101.
In the case of ACAAAAAA, the “PBM E-score” value is reported as 0.0733.
With AACTAGGG the “PBM E-score” value was -0.199.
CTCGCCTA was tested, and the “PBM E-score” value was 0.0116.
CACTGTCA was tested, and the “PBM E-score” value was -0.307.
In the case of CAGGAAAA, the “PBM E-score” value is reported as -0.0586.
CGCGAGAA was tested, and the “PBM E-score” value was -0.0394.
With CCGTATGC the “PBM E-score” value was 0.176.
AACCTAAG was tested, and the “PBM E-score” value was -0.166.
In the case of GTCCATGA, the “PBM E-score” value is reported as -0.226.
For GCGCGACC, the “PBM E-score” value was -0.0286.
In the case of CAGAAGGA, the “PBM E-score” value is reported as -0.278.
With AACAGATG the “PBM E-score” value was -0.195.
TTCTTAAA was tested, and the “PBM E-score” value was -0.138.
With CAGTTAAA the “PBM E-score” value was -0.145.
With AGCCCTCG the “PBM E-score” value was -0.0469.
With GTTTAGGA the “PBM E-score” value was -0.165.
In the case of ATTGGCGA, the “PBM E-score” value is reported as -0.271.
CTTGGATA was tested, and the “PBM E-score” value was -0.00976.
ACCAGTAG was tested, and the “PBM E-score” value was -0.123.
In the case of AAGGGTCT, the “PBM E-score” value is reported as -0.182.
AATCACCT was tested, and the “PBM E-score” value was -0.142.
In the case of AGAGCGGA, the “PBM E-score” value is reported as 0.107.
For ATCTCATC, the “PBM E-score” value was -0.153.
For AGCCTCAT, the “PBM E-score” value was -0.0296.
For AAGGACTT, the “PBM E-score” value was -0.0866.
In the case of CATGGTTA, the “PBM E-score” value is reported as -0.00971.
For CGAACCCA, the “PBM E-score” value was 0.139.
In the case of AAACTCTC, the “PBM E-score” value is reported as 0.138.
With CTGTACGA the “PBM E-score” value was -0.154.
In the case of AGTGTGAG, the “PBM E-score” value is reported as -0.0312.
For CGCCACCG, the “PBM E-score” value was 0.063.
CAAATCCA was tested, and the “PBM E-score” value was -0.163.
With CCTGGGAA the “PBM E-score” value was -0.163.
In the case of ACGGTCAA, the “PBM E-score” value is reported as 0.06.
For CCGATTCG, the “PBM E-score” value was 0.376.
With ATAACCCG the “PBM E-score” value was 0.316.
CATTACGA was tested, and the “PBM E-score” value was -0.138.
In the case of AACGATAA, the “PBM E-score” value is reported as 0.0432.
AAAGGATC was tested, and the “PBM E-score” value was -0.132.
In the case of CGTCATCC, the “PBM E-score” value is reported as 0.125.
With CCTGATCA the “PBM E-score” value was -0.194.
With AGCAGAGC the “PBM E-score” value was 0.0158.
In the case of AGGACGTC, the “PBM E-score” value is reported as -0.169.
For CCTCTAAA, the “PBM E-score” value was -0.253.
With AGCATCTC the “PBM E-score” value was -0.136.
In the case of ATAAAGGG, the “PBM E-score” value is reported as -0.0856.
In the case of GCCTTGCA, the “PBM E-score” value is reported as -0.253.
With ACAATGCC the “PBM E-score” value was 0.0636.
GCACAAAA was tested, and the “PBM E-score” value was 0.0735.
In the case of GTCCCTAA, the “PBM E-score” value is reported as -0.0432.
CTCGCAAA was tested, and the “PBM E-score” value was -0.159.
In the case of GACTGTAC, the “PBM E-score” value is reported as -0.138.
With ACCCTCTC the “PBM E-score” value was -0.0835.
With CACCATCG the “PBM E-score” value was -0.123.
AAACGGCA was tested, and the “PBM E-score” value was 0.0407.
With ACTAGCGA the “PBM E-score” value was -0.142.
With ATACATCA the “PBM E-score” value was -0.148.
GTCTTCAA was tested, and the “PBM E-score” value was -0.289.
CCTTCAGC was tested, and the “PBM E-score” value was -0.252.
For CAGACATA, the “PBM E-score” value was -0.0552.
With CCGCGGAG the “PBM E-score” value was 0.189.
In the case of GATCACGA, the “PBM E-score” value is reported as -0.155.
With CGCGTAGC the “PBM E-score” value was 0.0258.
CCCTACGG was tested, and the “PBM E-score” value was 0.0881.
For GACACTAC, the “PBM E-score” value was -0.0111.
For ATACTCGC, the “PBM E-score” value was 0.153.
CTAGAATA was tested, and the “PBM E-score” value was -0.0583.
GGGCTCAA was tested, and the “PBM E-score” value was -0.0553.
In the case of GGATCCAC, the “PBM E-score” value is reported as 0.0853.
GATGCCGC was tested, and the “PBM E-score” value was 0.0124.
In the case of CAGAGGTA, the “PBM E-score” value is reported as -0.101.
With CTAACACC the “PBM E-score” value was -0.09.
For CGAGCTCG, the “PBM E-score” value was 0.328.
GGCGTAGA was tested, and the “PBM E-score” value was -0.0918.
In the case of AATTCGCA, the “PBM E-score” value is reported as 0.129.
In the case of GATGTTCC, the “PBM E-score” value is reported as 0.301.
In the case of ACAGCTCC, the “PBM E-score” value is reported as 0.0044.
TACAATCA was tested, and the “PBM E-score” value was -0.0408.
In the case of AAATGTAG, the “PBM E-score” value is reported as -0.08.
AAGAGATA was tested, and the “PBM E-score” value was -0.148.
ATTCGTAC was tested, and the “PBM E-score” value was -0.0153.
For GAGCACTA, the “PBM E-score” value was -0.0848.
For ATCGCAAA, the “PBM E-score” value was -0.111.
In the case of GCTAATCA, the “PBM E-score” value is reported as -0.0452.
AAGATGGA was tested, and the “PBM E-score” value was -0.00885.
For GCTGCCCA, the “PBM E-score” value was -0.11.
With AGCGTTGG the “PBM E-score” value was -0.297.
For GCGCTGGA, the “PBM E-score” value was 0.0327.
With TATTGCCA the “PBM E-score” value was -0.0494.
ATTCGCTC was tested, and the “PBM E-score” value was -0.119.
For CGAAGTCA, the “PBM E-score” value was 0.0522.
In the case of ATTGAGTG, the “PBM E-score” value is reported as -0.17.
For GATCAGGC, the “PBM E-score” value was -0.0399.
For TCCAAGGA, the “PBM E-score” value was 0.136.
For AGTCTAGA, the “PBM E-score” value was -0.236.
With GATCGACA the “PBM E-score” value was -0.121.
For GTCGCAGA, the “PBM E-score” value was -0.195.
In the case of AATCTTGT, the “PBM E-score” value is reported as 0.0896.
With ACCCTCCC the “PBM E-score” value was 0.25.
In the case of CCATTTGA, the “PBM E-score” value is reported as -0.137.
CGTGCTAA was tested, and the “PBM E-score” value was -0.0967.
With AACGAAGG the “PBM E-score” value was -0.273.
CTTCAGTC was tested, and the “PBM E-score” value was -0.24.
With TCTTCGCA the “PBM E-score” value was -0.0992.
TACTCCAA was tested, and the “PBM E-score” value was -0.308.
ACGTCAAC was tested, and the “PBM E-score” value was -0.151.
In the case of AGCGCTTA, the “PBM E-score” value is reported as -0.107.
In the case of ATGTGAAC, the “PBM E-score” value is reported as -0.116.
With ACGACAAC the “PBM E-score” value was -0.0889.
For TAAATTAA, the “PBM E-score” value was 0.0737.
For CCTTGATA, the “PBM E-score” value was -0.351.
For ATTGCACC, the “PBM E-score” value was -0.0944.
With ATCTAGCA the “PBM E-score” value was -0.261.
For GGCGCTTA, the “PBM E-score” value was 0.0331.
In the case of ATATTAAT, the “PBM E-score” value is reported as 0.113.
In the case of ATATCTGC, the “PBM E-score” value is reported as -0.222.
With ACGTCCCT the “PBM E-score” value was -0.32.
For ACGATAAA, the “PBM E-score” value was 0.0306.
In the case of GTTGACTA, the “PBM E-score” value is reported as -0.228.
In the case of GCCTTGGA, the “PBM E-score” value is reported as -0.222.
AACTCTCT was tested, and the “PBM E-score” value was -0.17.
With ACATGTAA the “PBM E-score” value was -0.0569.
With AAAGTAGG the “PBM E-score” value was -0.0266.
For AGAGGCTG, the “PBM E-score” value was -0.373.
In the case of CTCAAACA, the “PBM E-score” value is reported as -0.026.
TAGGCCCA was tested, and the “PBM E-score” value was -0.271.
With ACTGCCCG the “PBM E-score” value was 0.123.
For AACGCTTC, the “PBM E-score” value was -0.0915.
In the case of AACCACCA, the “PBM E-score” value is reported as -0.102.
In the case of ACCGCGGG, the “PBM E-score” value is reported as 0.302.
For CTAAAGAA, the “PBM E-score” value was -0.136.
With AGCCGCAT the “PBM E-score” value was 0.0537.
With ATGAAAAG the “PBM E-score” value was -0.216.
For CTCTAGAC, the “PBM E-score” value was -0.238.
ACATACTA was tested, and the “PBM E-score” value was 0.016.
With CACCATTA the “PBM E-score” value was 0.0648.
With ACTGCTTA the “PBM E-score” value was -0.209.
For ATATGACG, the “PBM E-score” value was 0.108.
For CATCTCGG, the “PBM E-score” value was 0.458.
AGAGCCAG was tested, and the “PBM E-score” value was -0.278.
With AAATCGTC the “PBM E-score” value was 0.0518.
For ACCACAGA, the “PBM E-score” value was -0.193.
With AGCCCCGC the “PBM E-score” value was 0.0678.
For GATGCCCC, the “PBM E-score” value was -0.106.
In the case of AAGTGGCA, the “PBM E-score” value is reported as -0.186.
In the case of TCGCAACA, the “PBM E-score” value is reported as -0.178.
For ATTGACCA, the “PBM E-score” value was -0.186.
In the case of GATTAGCA, the “PBM E-score” value is reported as -0.177.
For CTGCCTCA, the “PBM E-score” value was -0.229.
In the case of GTTAAACA, the “PBM E-score” value is reported as -0.0604.
